Test results reported in patent CN117866904A (BEILAI PHARMACEUTICAL CO LTD, dated 2024).

Target: T1, IL-17A重组蛋白(抗原), IL-17 antigen with a C-terminal 6×His tag, expressed in E. coli BL21 (human, UniProt Q16552 24-155, limits assumed)
T1 sequence: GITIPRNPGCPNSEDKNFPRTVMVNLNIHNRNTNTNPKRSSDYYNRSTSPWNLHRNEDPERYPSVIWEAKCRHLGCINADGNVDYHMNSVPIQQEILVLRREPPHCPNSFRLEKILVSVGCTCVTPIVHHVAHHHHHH
Experiment: cell-based or functional assay

B1: 串联抗体G4-H10 (IL-17A特异性串联抗体, 2-G4-(GGGGS)3-3-H10-hinge-human IgG1 Fc) (Fc fusion)
chain: QVQLVESGGGLVQPGGSLRLSCAASGEKLDYFAIGWFRQAPGKEREVVSCVTSSGSSTNYLSSVKDRFTISIDNAKNTVYLQMNSLKPEDTAIYYCASTILLCSDYISAFGTWGQGTQVTVASGGGGSGGGGSGGGGSEVQLVESGGGLVQPGGSLRLSCAASGFSIHIYAMGWYRQAPGKQRELVATITRGGVTNNADSVKGRFTISRDNAKNTAYLQMNSLKPEDTAVYYCNAGGTNGGYWGQGTQVTVSS[in this place human IgG1 Fc]
With B1 the “IC50, 阻断Human IL-17A蛋白激活293F-IL-17RA-IL-17Rc-ACT1-NFκB-Luc报告基因细胞株” value was 0.589 nM.
